{
  "source": "PubChem BioAssay AID1347073",
  "about": "(National Center for Advancing Translational Sciences (NCATS), 2019)",
  "note": "Hit rate of the full screen: of about 45,000 compounds, about 200 (0.44%) were called active. The inconclusive results got no clear call from the source; some entries with a clear call stand among them for comparison. Calls follow the shape of the dose curve; as a rule, active = well fitted activation curve with a large enough effect; inconclusive = small, poorly fitted or top-dose-only effect; inactive = no such curve, though single readings can be large or run the other way. Potencies beside an inconclusive call are fits to weak or partial responses and may not hold up. Potency is read from the fitted curve at half-maximal effect; tags tell the direction and shape of the fitted curve.",
  "data": [
    {"assay": "qHTS of TDP-43 Inhibitors: NCGC Sytravon Library Screen; also: nearly all actives have a fitted effect of over 55% in size; as to growth rescue (activation): 0% is about no effect", "details": "yeast TDP-43 toxicity rescue, BacTiter-Glo growth, 24 h; growth rescue (activation): at 46.1 µM (top of the series)", "how_it_was_run": "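TDP-43-expressing yeast, pregrown in raffinose, seeded at OD600 0.02 in galactose medium with compound for 24 hr at 30 deg C. Growth read by BacTiter-Glo luminescence, so rescue of toxicity appears as activation.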", "values": [
      {"smiles": "Cc1nn(-c2ccccc2)c(Cl)c1/C=N/NS(=O)(=O)c1ccc(Br)cc1", "Potency": "inconclusive: 14.1 µM [activator, partial curve, poor fit]"},
      {"smiles": "COc1ccccc1CNc1nc2cc(-c3ccccc3C)sc2c(=O)n1C", "growth rescue (activation)": "inconclusive: 69.6% [activator]"},
      {"smiles": "COCCN(C(=S)Nc1ccccc1OC)C(C)c1cccs1", "note": "(stereo not drawn)", "Potency": "inconclusive: 14.1 µM [activator, single point]"},
      {"smiles": "COC(=O)c1c(-c2cccs2)csc1NC(=O)c1cccnc1", "Potency": "inconclusive: 17.8 µM [activator, single point]"},
      {"smiles": "CSc1nnc2c(n1)OC(c1cccc(O)c1Cl)Nc1ccccc1-2", "note": "(stereo not drawn)", "Potency": "inactive"},
      {"smiles": "O=C(Nc1cccc(S(=O)(=O)NC2=NCCC2)c1)c1ccc(C(F)(F)F)cc1", "Potency": "inactive"},
      {"smiles": "Cc1c(Cl)cccc1NC(=S)NCc1ccc2c(c1)OCO2", "Potency": "inconclusive: 17.8 µM [activator, partial curve, poor fit]"},
      {"smiles": "COc1ccc(OC)c(CNC(=O)CCCn2c(=O)c3cccn3c3cccnc32)c1", "Potency": "inactive"},
      {"smiles": "COc1ccc(N2CCN(c3ncnc4scc(-c5ccccc5)c34)CC2)cc1", "Potency": "inconclusive: 12.6 µM [activator, partial curve, poor fit]"},
      {"smiles": "CC(C)CCOc1cccc(OCC(=O)Nc2ccncc2)c1", "Potency": "inconclusive: 6.31 µM [activator, single point]"},
      {"smiles": "CCOC(=O)Cc1csc(NC(=S)NC(=O)c2ccccc2Br)n1", "Potency": "inconclusive: 20 µM [activator, single point]"},
      {"smiles": "Cc1ccc(Sc2ccc(C(=O)N(C)C)cc2[N+](=O)[O-])cc1", "Potency": "inconclusive: 11.2 µM [activator, partial curve]"},
      {"smiles": "O=C(C#Cc1ccccc1)c1ccc([N+](=O)[O-])cc1", "Potency": "inconclusive: 3.55 µM [activator, full curve, poor fit]"},
      {"smiles": "O=C(C1CCN(S(=O)(=O)c2ccc(Br)s2)CC1)N1CCN(c2ccccc2)CC1", "Potency": "inconclusive: 11.2 µM [activator, partial curve]"},
      {"smiles": "Cc1c(Cl)cccc1NCC(=O)Nc1ccc(Cl)cc1F", "Potency": "inconclusive: 35.5 µM [activator, single point]"},
      {"smiles": "O=C(CSc1nc2ccccc2o1)N/N=C/c1ccc(C(=O)O)cc1", "Potency": "inconclusive: 20 µM [activator, single point]"},
      {"smiles": "N#Cc1sc2nc3c(cc2c1N)CCCC3", "Potency": "inconclusive: 7.08 µM [activator, full curve, poor fit]"},
      {"smiles": "O=C(c1cc2ncccn2n1)N1CCc2c([nH]c3ccccc23)C1c1ccccc1F", "note": "(stereo not drawn)", "Potency": "inconclusive: 12.6 µM [activator, single point]"},
      {"smiles": "CCCCOc1cccc(C(=O)N(Cc2cccs2)c2ccc(OC)cc2)c1", "Potency": "inactive"},
      {"smiles": "O[C@@H]1CN(C2CCN(Cc3ccccc3)CC2)CC[C@H]1N1CCCCCC1", "Potency": "inconclusive: 22.4 µM [activator, single point]"},
      {"smiles": "O=C(NCc1ccccn1)C1CC(c2ccccc2Cl)=NO1", "note": "(stereo not drawn)", "Potency": "inactive"},
      {"smiles": "CCN(C(=O)c1cc2c(=O)[nH]c3ccc(C)cc3c2s1)c1ccccc1C", "Potency": "inconclusive: 35.5 µM [activator, single point]"},
      {"smiles": "COCCN1Cc2cccc(C(=O)NC3CCCCCC3)c2C1=O", "Potency": "inconclusive: 35.5 µM [activator, single point]"},
      {"smiles": "COc1ccc(NC(=O)c2noc(C(C)C)c2[N+](=O)[O-])cc1", "Potency": "inconclusive: 10 µM [activator, partial curve]"},
      {"smiles": "CC(OC(=O)c1ccc([N+](=O)[O-])s1)C(=O)Nc1ncc(Cl)cc1Cl", "note": "(stereo not drawn)", "Potency": "inconclusive: 11.2 µM [activator, partial curve, poor fit]"},
      {"smiles": "CCC(=O)N1N=C(c2ccc(C)o2)CC1c1ccc(Br)cc1", "note": "(stereo not drawn)", "Potency": "inconclusive: 17.8 µM [activator, partial curve, poor fit]"},
      {"smiles": "COc1ccc(NC(=O)C2(C)Cc3c(-c4cccc(NC(C)=O)c4)ccnc3O2)cc1", "note": "(stereo not drawn)", "Potency": "inactive"},
      {"smiles": "COc1cccc2cc(C(=O)OCC(=O)NC3CCCC(C)C3C)c(=O)oc12", "note": "(stereo not drawn)", "Potency": "inactive"},
      {"smiles": "Cc1ccc(/C=C/C(=O)c2ccccc2O)cc1", "Potency": "inconclusive: 35.5 µM [activator, partial curve, poor fit]"},
      {"smiles": "S=C(Nc1ccc(Cl)cc1)N1CCCCC1", "Potency": "inconclusive: 8.91 µM [activator, partial curve, poor fit]"},
      {"smiles": "COc1ccc(CNC(=O)c2cc(SC)ccc2Cl)cc1OC", "Potency": "inconclusive: 10 µM [activator, partial curve]"},
      {"smiles": "Cn1cccc1C(=O)OCC(=O)NCCCc1ccccc1", "Potency": "inconclusive: 12.6 µM [activator, partial curve, poor fit]"},
      {"smiles": "COC(=O)c1c(C)[nH]c(C)c1-c1ccc(C)cc1", "Potency": "inconclusive: 15.8 µM [activator, single point]"},
      {"smiles": "O=C(C1=NN[C@@H]2C(=O)N(Cc3ccccc3)C(=O)[C@H]12)c1ccc([N+](=O)[O-])cc1", "Potency": "inactive"},
      {"smiles": "COc1ccc(C2=NS(=O)(=O)N(C)C(C(=O)Nc3ccc(OC(F)(F)F)cc3)=C2)cc1", "Potency": "inactive"},
      {"smiles": "CC(Sc1nc2ccccc2s1)C(=O)NCc1ccc2c(c1)OCO2", "note": "(stereo not drawn)", "Potency": "inconclusive: 14.1 µM [activator, partial curve, poor fit]"},
      {"smiles": "CC(C)Cc1ccc(C(=O)NCCOc2ccccc2)o1", "Potency": "inconclusive: 14.1 µM [activator, partial curve, poor fit]"},
      {"smiles": "Cc1cc(C(=O)CCl)c(C)n1CCc1ccc(Cl)cc1", "Potency": "inconclusive: 15.8 µM [activator, single point]"},
      {"smiles": "S=C(NCc1ccccn1)Nc1ccc(Cl)cc1", "Potency": "inconclusive: 17.8 µM [activator, single point]"},
      {"smiles": "CSc1nnc(NC(=O)c2nc(S(=O)(=O)Cc3cccc(C)c3)ncc2Cl)s1", "Potency": "inconclusive: 3.55 µM [activator, full curve]"},
      {"smiles": "O=C(Nc1cc(Cl)ccc1Cl)C1Cc2ccccc2O/C1=N\\O", "note": "(stereo not drawn)", "Potency": "active: 11.2 µM"},
      {"smiles": "O=C(c1noc2c1CCCC2)N1CCc2ccccc2C1", "Potency": "inconclusive: 14.1 µM [activator, partial curve, poor fit]"},
      {"smiles": "O=S(=O)(NCc1ccco1)c1ccc(Cl)cc1Cl", "Potency": "inactive"},
      {"smiles": "COC(=O)CNC(=O)C1Cc2ccccc2CN1S(=O)(=O)c1cccs1", "note": "(stereo not drawn)", "Potency": "inconclusive: 35.5 µM [activator, single point]"},
      {"smiles": "COc1cccc(/C=C/C(=O)NCc2ccc3c(c2)OCO3)c1", "Potency": "inconclusive: 28.2 µM [activator, single point]"},
      {"smiles": "COc1ccc(-c2nnc(SCC(C)C)o2)cc1", "Potency": "inconclusive: 14.1 µM [activator, partial curve, poor fit]"},
      {"smiles": "COC(=O)c1c(NC(=O)c2ccc(C(C)(C)C)cc2)sc2c1CCC(C)C2", "note": "(stereo not drawn)", "Potency": "inactive"},
      {"smiles": "Cc1ccc(C(=O)OCc2nc(N)nc(Nc3ccccc3C)n2)cc1", "Potency": "inconclusive: 35.5 µM [activator, single point]"},
      {"smiles": "Cc1nc(C(F)(F)F)ccc1C(=O)N1CCCC1(C)C(=O)NCC(C)C", "note": "(stereo not drawn)", "Potency": "inactive"},
      {"smiles": "COc1ccc(N2CCN(C(=O)c3cccc(Br)c3)CC2)c([N+](=O)[O-])c1", "Potency": "inconclusive: 12.6 µM [activator, partial curve, poor fit]"},
      {"smiles": "Cc1ccc(-c2cc3nc(NCCc4ccncc4)n(C)c(=O)c3s2)cc1", "Potency": "inactive"},
      {"smiles": "COc1ccccc1/C=C/C(=O)N1CCC(c2ccccc2)C1", "note": "(stereo not drawn)", "Potency": "inconclusive: 11.2 µM [activator, partial curve]"},
      {"smiles": "Cc1ccc(C(=O)N2CCN(c3cnn(C)c(=O)c3Cl)CC2)cc1", "Potency": "inactive"},
      {"smiles": "Cc1cccn2c(=O)c3cc(C#N)c(=O)n(-c4nnc(SCc5ccc(Cl)cc5)s4)c3nc12", "Potency": "inactive"},
      {"smiles": "CCn1c(O)c(N=NC(=O)CNc2cccc(C)c2)c2ccccc21", "Potency": "inconclusive: 12.6 µM [activator, single point]"},
      {"smiles": "CCN1/C(=C\\C=C(C(C)=O)C(C)=O)Sc2ccccc21", "Potency": "inconclusive: 12.6 µM [activator, partial curve, poor fit]"},
      {"smiles": "COc1ccc(N2CCN(C(=O)C3CCCN(S(=O)(=O)c4c(C)noc4C)C3)CC2)cc1", "note": "(stereo not drawn)", "Potency": "inconclusive: 35.5 µM [activator, single point]"},
      {"smiles": "COc1c(O)ccc(/C=N/NC(=O)c2ccc3c(c2)OCCO3)c1[N+](=O)[O-]", "Potency": "inconclusive: 35.5 µM [activator, single point]"},
      {"smiles": "CC(=O)c1cccc(NC(=O)CSc2n[nH]c(=O)n2C2CC2)c1", "Potency": "inactive"},
      {"smiles": "O=C(Nc1ccc(C(O)(C(F)(F)F)C(F)(F)F)cc1)c1ccc(Cl)c([N+](=O)[O-])c1", "Potency": "inconclusive: 31.6 µM [activator, single point]"},
      {"smiles": "COc1ccc(CN(C)CC(O)COc2ccc(-c3ccccc3)cc2)cc1OC", "note": "(stereo not drawn)", "growth rescue (activation)": "inconclusive: -50.5% [activator]"},
      {"smiles": "CCOC(=O)C(=NCC1CCCO1)NNc1cc(Cl)ccc1Cl", "note": "(stereo not drawn)", "Potency": "inconclusive: 31.6 µM [activator, single point]"},
      {"smiles": "Brc1nc(Br)n(Cc2ccccc2)n1", "Potency": "inconclusive: 15.8 µM [activator, single point]"},
      {"smiles": "CC1CCc2c(C(=O)NCc3ccco3)csc2C1", "note": "(stereo not drawn)", "Potency": "inconclusive: 35.5 µM [activator, single point]"},
      {"smiles": "COc1cc(C=O)ccc1OCCCOc1ccc([N+](=O)[O-])cc1", "Potency": "inconclusive: 31.6 µM [activator, partial curve, poor fit]"},
      {"smiles": "COc1cccc2cc(-c3ccccc3)c(=O)oc12", "Potency": "inconclusive: 12.6 µM [activator, partial curve, poor fit]"},
      {"smiles": "OC[C@@H]1CN(Cc2cccc(C(F)(F)F)c2)C[C@H](n2cnc3c(NC4CC4)ncnc32)O1", "Potency": "inactive"},
      {"smiles": "CC(=O)c1ccc(Nc2nc(C(N)CCc3ccccc3)cs2)cc1", "note": "(stereo not drawn)", "Potency": "inactive"}
    ]}
  ]
}
